About 4,000 (1%) of roughly 390,000 compounds were called active. The shares of active, inactive and inconclusive entries below differ from those in the screen. The call rests on the fitted dose curve; in most records, active means well fitted inhibition curve with a large enough effect; inconclusive means small, poorly fitted or top-dose-only effect; inactive means no such curve, though single readings can be large or run the other way. A potency beside an inconclusive call is a rough fit, not a confirmed value.
The molecules below were run against Thioredoxin reductase 1, cytoplasmic (Rattus norvegicus) (UniProt O89049) (assay: qHTS Assay for Inhibitors of Mammalian Selenoprotein Thioredoxin Reductase 1 (TrxR1): qHTS). Conditions: recombinant rTrxR1, NADPH fluorescence consumption, selenite substrate; series mostly up to 114 µM; activity change, negative = inhibition: at the top concentration.
Procedure, shortened: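 Rat TrxR1 (90 nM in the dispensed reagent) was pre-reduced with 400 uM NADPH for 5 min at room temperature, then incubated with compound for 15 min. After 400 uM selenite was added, NADPH fluorescence (Ex 340/Em 450 nm) was followed for 8 min.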
Further: nearly all actives have a fitted effect of over 65% in size.
On the % scale 0 is the no-effect control and ±100 the full control effect; potency means the concentration at half of the fitted maximal effect; tags describe the fitted curve by direction and shape.

Sequence of UniProt O89049 (O89049 whole entry, looked up): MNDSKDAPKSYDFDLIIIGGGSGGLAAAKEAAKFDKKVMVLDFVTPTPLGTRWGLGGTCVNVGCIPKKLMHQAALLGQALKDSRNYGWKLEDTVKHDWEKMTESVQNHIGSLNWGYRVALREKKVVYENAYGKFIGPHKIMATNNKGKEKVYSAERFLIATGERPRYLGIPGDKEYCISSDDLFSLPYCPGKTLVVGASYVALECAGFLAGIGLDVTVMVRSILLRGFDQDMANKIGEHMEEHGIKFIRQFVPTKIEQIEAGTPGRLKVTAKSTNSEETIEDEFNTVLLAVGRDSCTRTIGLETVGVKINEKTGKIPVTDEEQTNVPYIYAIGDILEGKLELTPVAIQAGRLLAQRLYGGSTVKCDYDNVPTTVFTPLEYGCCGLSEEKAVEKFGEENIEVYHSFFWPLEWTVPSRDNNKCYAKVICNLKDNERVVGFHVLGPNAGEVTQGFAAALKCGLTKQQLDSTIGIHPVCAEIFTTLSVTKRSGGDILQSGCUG

Row | Structure (SMILES) | Potency | activity change, negative = inhibition
1 | Cc1cccc(CN2CCc3c([nH]c4ccccc34)C2C(C)(C)C)n1 (stereo not drawn) | inconclusive: 25.1 µM [inhibitor, full curve] | 
2 | O=C(CSc1nnc(-c2ccc(Cl)cc2)c(-c2ccc(Cl)cc2)n1)NC1CCCC1 |  | inactive: -0.838% [at 57.1 µM]
3 | COc1ccc(/C=C2/SC(=S)NC2=O)cc1OCc1ccccc1 |  | inactive: 5.33% [at 57.1 µM]
4 | COc1ccc(/C=N\NC(=S)SCN2C(=O)C3CCC(C)(C2=O)C3(C)C)cc1 (stereo not drawn) | inconclusive: 63.1 µM [inhibitor, single point] | 
5 | CC(=O)N1CCc2cc(S(=O)(=O)NC(Cc3ccccc3)C(=O)O)ccc21 (stereo not drawn) |  | inactive: 3.6%
6 | COc1ccc(OC)c(Nc2nc(-c3sc(N)nc3C)cs2)c1 | inconclusive: 31.6 µM [inhibitor, single point] | 
7 | Cc1ccc(S(=O)(=O)Cc2ccc(C(=O)N3CCN(c4ccccn4)CC3)o2)cc1 | inconclusive: 56.2 µM [inhibitor, partial curve] | 
8 | COc1ccc(N(CN2C(=O)C3CCCCC3C2=O)C(=O)c2ccco2)cc1 (stereo not drawn) |  | inactive: -13.4% [at 57.1 µM]
9 | Cc1ccc(-c2noc(C3CCCN(C(=O)C4CCCCC4)C3)n2)o1 (stereo not drawn) | inconclusive: 15.8 µM [inhibitor, single point] | 
10 | COc1ccc(N(CC(=O)NCc2ccco2)S(C)(=O)=O)cc1Cl | inconclusive: 39.8 µM [inhibitor, partial curve] | 
11 | CCOC(=O)/C=C/S(=O)(=O)c1ccc(NC(C)=O)cc1 | inconclusive: 0.316 µM [inhibitor, full curve, poor fit] | 
12 | O=C(OCC#CCSc1nc2ccccc2s1)c1ccco1 | inconclusive: 14.1 µM [inhibitor, full curve] | 
13 | Cn1nnnc1SCC(=O)N1CCc2ccccc21 |  | inactive: 10.6%
14 | c1ccc(-c2c(-c3ccccc3)n(Cc3ccco3)c3ncnc(NCCCn4ccnc4)c23)cc1 | inconclusive: 25.1 µM [inhibitor, full curve, poor fit] | 
15 | CCOC(=O)CSc1nc2sc3c(c2c(=O)n1-c1ccccc1)CCN(C(C)C)C3 | inconclusive: 31.6 µM [inhibitor, single point] | 
16 | O=C(O)c1cccc(NC(=S)N/N=C/c2ccccc2OCc2cccc(Br)c2)c1 |  | inactive: -17.9%
17 | COc1ccc(CNC(=O)c2cccc(NC3=NC4CS(=O)(=O)CC4S3)c2)cc1 (stereo not drawn) |  | inactive: 2.03% [at 57.1 µM]
18 | O=C(C[n+]1ccccc1Cl)c1ccc(O)c(O)c1 |  | inactive: -20.1%
19 | Cc1noc2ncnc(Sc3ccccc3Cl)c12 | inconclusive: 50.1 µM [inhibitor, partial curve] | 
20 | CSCCC(NS(=O)(=O)c1ccc2c(c1)oc(=O)n2C)C(=O)NCc1cccs1 (stereo not drawn) | inconclusive: 89.1 µM [inhibitor, single point] | 
21 | CC(=O)Nc1cccc(C(=O)/C=C/c2ccco2)c1 | inconclusive: 39.8 µM [inhibitor, single point] | 
22 | O=C(Nc1ccc2c3c(cccc13)CC2)c1ccco1 | inconclusive: 28.2 µM [inhibitor, full curve, poor fit] | 

Row | Structure (SMILES) | Potency | activity change, negative = inhibition
23 | Cc1ccc2c(c1)[C@H]1[C@H](CO2)[C@H](c2ccccc2)[C@]2(C)C(=O)N(Cc3ccco3)CC(=O)N12 | inconclusive: 14.1 µM [inhibitor, partial curve, poor fit] | 
24 | COc1ccc(S(=O)(=O)N(CC(=O)NCc2ccco2)C2CCCCC2)cc1OC | inconclusive: 44.7 µM [inhibitor, single point] | 
25 | O=C(/C=C/c1ccnc2ccccc12)c1cccs1 | inconclusive: 31.6 µM [inhibitor, single point] | 
26 | CCc1cc2c(=O)n(Cc3ccco3)c(SCC(=O)N3CCCc4ccccc43)nc2s1 | inconclusive: 50.1 µM [inhibitor, partial curve] | 
27 | COc1cc(CN(C)Cc2ccccc2)cc(OC)c1O | inconclusive: 39.8 µM [inhibitor, single point] | 
28 | CCOC(=O)C1=C(COC(=O)c2cc(OC)c(OC)cc2[N+](=O)[O-])NC(=O)NC1C (stereo not drawn) | inconclusive: 39.8 µM [inhibitor, single point] | 
29 | O=C(CCl)Oc1ccc2occ(C(=O)c3cccs3)c2c1 | inconclusive: 28.2 µM [inhibitor, single point] | 
30 | N#C/C=C/C(=C\Nc1ccc(Cl)cc1)S(=O)(=O)c1ccccc1 | inconclusive: 79.4 µM [inhibitor, partial curve, poor fit] | 
31 | CCCC[C@@H]1C=C(C(=O)O)[C@H](c2ccc(C)cc2)N1S(=O)(=O)c1ccc(C)cc1 |  | inactive: 8.03%
32 | O=c1cc(N2CCOCC2)oc2c(-c3ccccc3)cccc12 | inactive | 
33 | Cc1ccc([N+](=O)[O-])cc1NC(=S)NC(=O)CC(C)(C)C | inconclusive: 12.6 µM [inhibitor, partial curve] | 
34 | Cc1ccc2nc(SCC(=O)NC(=O)NCc3ccco3)[nH]c2c1 | inconclusive: 25.1 µM [inhibitor, single point] | 
35 | CN(CC(=O)Nc1ccc(N2CCOCC2)cc1)Cc1c(O)ccc2ccccc12 | active: 3.98 µM | 
36 | O=C1N(Cc2cccnc2)C[C@@H]2C[C@@H](c3ccccc3C#Cc3ccccc3)N3CCC[C@@]123 | inconclusive: 56.2 µM [inhibitor, partial curve] | 
37 | CC(=O)c1ccc(N2CCN(C(=O)C3CCCN(S(=O)(=O)c4c(C)[nH]c(=O)[nH]c4=O)C3)CC2)cc1 (stereo not drawn) |  | inactive: 8% [at 57.1 µM]
38 | COCC(=O)Nc1c(C(=O)Nc2ccccc2OC)oc2ccccc12 | inconclusive: 22.4 µM [inhibitor, single point] | 
39 | O=C(NCc1ccc(Cl)cc1)C(=O)NCC1OCCN1S(=O)(=O)c1cc(F)ccc1F (stereo not drawn) |  | inactive: 14.9%
40 | CC(=O)[C@H]1[C@@H]2C(=O)N(c3cccc(Cl)c3)C(=O)[C@@H]2[C@H]2c3ccccc3C=CN21 | inconclusive: 12.6 µM [inhibitor, single point] | 
41 | O=C(Nc1cc2c(cc1C(=O)O)OCCCO2)c1ccc(C(F)(F)F)cc1 | inconclusive: 89.1 µM [inhibitor, single point] | 
42 | Fc1ccccc1NC(=S)N1CCCCC1 | inconclusive: 70.8 µM [inhibitor, partial curve, poor fit] | 
43 | O=C(CN1CCN(CC(=O)c2ccc(Cl)cc2)CC1)c1ccc(Cl)cc1 | inconclusive: 25.1 µM [inhibitor, single point] | 
